From a collection of fitness landscapes (doi:10.1016/j.celrep.2020.107928)
Whole data set: some 81,000 sequences, median “one-hybrid fitness for binding NBS DNA” near -0.1, cut for the highest 2% near 0.36. This is one part of the list.

B1: Caulobacter ParB omega fusion; a variant is named by its letters at X, in order, B8GW30 (parent)
chain: MESVVVGEPGMSEGRRGLGRGLSALLGEVDAAPAQAPGEQLGGSREAPIEILQRNPDQPRRTFREEDLEDLSNSIREKGVLQPILVRPSPDTAGEYQIVAGERAWRAAQRAGLKTVPIMVRELDDLAVLEIGIIENVQRADLNVLEEALSYKVLMEKFERTQENIAQTIGKSXSHVANXMRLLXLPDEVQSYLVSGELTAXHARAIAAAADPVALAKQIIEGGLSVRETEALARKAPNLSAGKSKGGRPPRVKDTDTQALESDLSSVLGLDVSIDHRGSTGTLTITYATLEQLDDLCNRLTRGI

Variants of: B1
Assay: one-hybrid fitness for binding NBS DNA (the Noc-binding site; scaled: cognate 1, non-cognate 0); higher = stronger binding
Conditions: with NBS DNA site
Method in brief: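 Pre- and post-selection plasmids were Illumina-sequenced, three replicate libraries were pooled, and any variant with under 10 reads was removed. The libraries were Caulobacter ParB with four specificity codons randomised, selected in E. coli USO through a HIS3 reporter whose site is 19 bp from the promoter. Cells grew 48 hours at 37°C on M9 without histidine, with 0.1 mM IPTG and 5 mM 3-AT. Fitness is the log change in variant-to-wild-type read ratio, rescaled against cognate and non-cognate.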

Variant | one-hybrid fitness for binding NBS DNA
KSKF | ≤ 0.2
PRIE | ≤ 0.2
WLMT | ≤ 0.2
RRDL | ≤ 0.2
RPGR | ≤ 0.2
YVYC | ≤ 0.2
RQQF | ≤ 0.2
HLVE | ≤ 0.2
RTMY | ≤ 0.2
FGKY | ≤ 0.2
SVCN | ≤ 0.2
CVPR | ≤ 0.2
VIRN | ≤ 0.2
SWVS | ≤ 0.2
YCNN | ≤ 0.2
AKER | ≤ 0.2
VKVA | ≤ 0.2
NPSM | ≤ 0.2
HPAA | ≤ 0.2
GRFR | ≤ 0.2
RWVK | ≤ 0.2
GKYI | ≤ 0.2
MLWG | ≤ 0.2
VRRS | 0.345
NFVG | ≤ 0.2

Variant | one-hybrid fitness for binding NBS DNA
GWYR | ≤ 0.2
LSGM | ≤ 0.2
YLHK | ≤ 0.2
MFDS | ≤ 0.2
QTTP | ≤ 0.2
TDVG | ≤ 0.2
RKKC | 0.391
VDRM | ≤ 0.2
CPED | ≤ 0.2
LLKY | ≤ 0.2
GNPN | ≤ 0.2
PCKM | ≤ 0.2
HITL | ≤ 0.2
LSTQ | ≤ 0.2
IMLC | ≤ 0.2
QGPG | ≤ 0.2
DVFS | ≤ 0.2
RNLI | ≤ 0.2
WIYS | ≤ 0.2
QMYE | ≤ 0.2
TADD | ≤ 0.2
PYST | ≤ 0.2
MDVG | ≤ 0.2
STST | ≤ 0.2
SDDT | ≤ 0.2

Variant | one-hybrid fitness for binding NBS DNA
CLKY | ≤ 0.2
RKEQ | ≤ 0.2
AISR | ≤ 0.2
REYS | ≤ 0.2
QTIL | ≤ 0.2
VTPG | ≤ 0.2
NNKT | ≤ 0.2
RCSG | ≤ 0.2
MSEN | ≤ 0.2
TRNK | ≤ 0.2
AADA | ≤ 0.2
DSTN | ≤ 0.2
NEMS | ≤ 0.2
QKRV | 0.41
TDKG | ≤ 0.2
KSPG | ≤ 0.2
SQRR | ≤ 0.2
ICSS | ≤ 0.2
ARGV | ≤ 0.2
HNHS | ≤ 0.2
KDRG | ≤ 0.2
QAIF | ≤ 0.2
HSEK | ≤ 0.2
LLKT | ≤ 0.2
DYTR | ≤ 0.2

Variant | one-hybrid fitness for binding NBS DNA
REDR | ≤ 0.2
GDND | ≤ 0.2
IYDS | ≤ 0.2
QQKD | 0.345
QGSR | ≤ 0.2
IFSS | ≤ 0.2
LLAK | ≤ 0.2
PHKH | ≤ 0.2
TGRT | ≤ 0.2
QNHL | ≤ 0.2
ICQC | ≤ 0.2
VFPN | ≤ 0.2
TVQV | ≤ 0.2
RSKL | ≤ 0.2
LWYR | ≤ 0.2
TGEG | ≤ 0.2
NSSD | ≤ 0.2
GCVS | ≤ 0.2
GNLG | ≤ 0.2
KNLD | ≤ 0.2
AVLG | ≤ 0.2
YCTC | ≤ 0.2
FFSR | ≤ 0.2
QQYW | ≤ 0.2
PGKK | ≤ 0.2

Variant | one-hybrid fitness for binding NBS DNA
AAMS | ≤ 0.2
GQYR | ≤ 0.2
VTMC | ≤ 0.2
RPRH | ≤ 0.2
VQHW | ≤ 0.2
QNKP | ≤ 0.2
HMNC | ≤ 0.2
RDPQ | ≤ 0.2
ISEV | ≤ 0.2
GIYT | ≤ 0.2
REIC | ≤ 0.2
MPEG | ≤ 0.2
YHDY | ≤ 0.2
MDNR | ≤ 0.2
PEAC | ≤ 0.2
VTQG | ≤ 0.2
FMST | ≤ 0.2
PIPR | ≤ 0.2
WTKC | ≤ 0.2
NRKY | ≤ 0.2
QPVQ | 0.598
VHGC | ≤ 0.2
RKQM | ≤ 0.2
RCKF | ≤ 0.2
DFER | ≤ 0.2

Variant | one-hybrid fitness for binding NBS DNA
APNL | ≤ 0.2
QYNN | ≤ 0.2
PWTA | ≤ 0.2
TDAW | ≤ 0.2
TRQG | ≤ 0.2
ITRL | ≤ 0.2
MLPC | ≤ 0.2
NINV | ≤ 0.2
HQLT | ≤ 0.2
TLHL | ≤ 0.2
RIYC | ≤ 0.2
SFWR | ≤ 0.2
DMAR | ≤ 0.2
YVDA | ≤ 0.2
CAIS | ≤ 0.2
HGRR | ≤ 0.2
RRTD | ≤ 0.2
ECHE | ≤ 0.2
CLCG | ≤ 0.2
RHGW | ≤ 0.2
RKEN | ≤ 0.2
GTSL | ≤ 0.2
GTFE | ≤ 0.2
RMVL | ≤ 0.2
QNLD | ≤ 0.2

Variant | one-hybrid fitness for binding NBS DNA
RDHY | ≤ 0.2
QISF | ≤ 0.2
QYEV | ≤ 0.2
WGLR | ≤ 0.2
TAKK | ≤ 0.2
FVVG | ≤ 0.2
IRRC | ≤ 0.2
VWHT | ≤ 0.2
IPSC | ≤ 0.2
THTG | ≤ 0.2
CTRR | 0.238
NPFK | ≤ 0.2
SASR | ≤ 0.2
CWKG | ≤ 0.2
GLRA | ≤ 0.2
CYMR | ≤ 0.2
RQPN | ≤ 0.2
RYMS | 0.307
ACCG | ≤ 0.2
RDSP | ≤ 0.2
SPQM | ≤ 0.2
GLVG | ≤ 0.2
ADCA | ≤ 0.2
RYQV | ≤ 0.2
MLFC | ≤ 0.2

Variant | one-hybrid fitness for binding NBS DNA
DYLT | ≤ 0.2
LEAW | ≤ 0.2
PERR | ≤ 0.2
TAFT | ≤ 0.2
WDRR | ≤ 0.2
PFIC | ≤ 0.2
PHGW | ≤ 0.2
RWKG | ≤ 0.2
ARNA | ≤ 0.2
RICP | ≤ 0.2
ITNK | ≤ 0.2
TSFQ | ≤ 0.2
YMWL | ≤ 0.2
AYNG | ≤ 0.2
TVTM | ≤ 0.2
PLFD | ≤ 0.2
ARYC | ≤ 0.2
QVSN | ≤ 0.2
AYMR | ≤ 0.2
VIVG | ≤ 0.2
